# Measurements published in the supplement of paper PMC12067230.
# Single values of this set are uncertain.
# Assay: amyloid nucleation score relative to library mode (yeast Sup35 reporter selection) (log enrichment difference); higher = more amyloid nucleation; sequences are the first 22 residues of the Bri2 peptide extended by up to 12 random residues
# Conditions: random library (experiment): 1;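 active = nucleation score significantly above 0 at FDR 0.05; inactive = not significantly above 0 or absent from output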
# 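Further: [psi-pin-] Saccharomyces cerevisiae expressing SupN fusions, induced by 100 µM Cu2SO4, selected 7 d at 30 °C without adenine and uracil, scored by deep sequencing of output versus input.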
row,Sequence,amyloid nucleation score
1,EASNCFAIRHFENKFAVETLICYLSYWNRCLWKK,inactive
2,EASNCFAIRHFENKFAVETLICCLGRCV,7.1
3,EASNCFAIRHFENKFAVETLICTLTSYRVYIVSG,inactive
4,EASNCFAIRHFENKFAVETLICCTHAWKCVSAKR,inactive
5,EASNCFAIRHFENKFAVETLICVNSLVRAESAAR,inactive
6,EASNCFAIRHFENKFAVETLICLPNANVR,inactive
7,EASNCFAIRHFENKFAVETLICRKAECFCYPREV,inactive
8,EASNCFAIRHFENKFAVETLICNHWRYFSRGEQG,0.539
9,EASNCFAIRHFENKFAVETLICGRIVGGPKVMWM,-0.463
10,EASNCFAIRHFENKFAVETLICVSYHMEKSLVYT,inactive
11,EASNCFAIRHFENKFAVETLICRRWTGALRVAWL,inactive
12,EASNCFAIRHFENKFAVETLICYGIYNGFLWFCR,inactive
13,EASNCFAIRHFENKFAVETLICYNAIQGQWCDVS,inactive
14,EASNCFAIRHFENKFAVETLICPVEDKMEVRRRG,inactive
15,EASNCFAIRHFENKFAVETLICLTLIVLTWLVCS,1.46
16,EASNCFAIRHFENKFAVETLICRGVKFWNDHTVP,inactive
17,EASNCFAIRHFENKFAVETLICCGRWRLMAYMEW,inactive
18,EASNCFAIRHFENKFAVETLICTGRGDPELVEAC,inactive
19,EASNCFAIRHFENKFAVETLICQS,inactive
20,EASNCFAIRHFENKFAVETLICLCVVASMHAWVI,inactive
21,EASNCFAIRHFENKFAVETLICCQKAGSTRGALV,inactive
22,EASNCFAIRHFENKFAVETLICRAC,inactive
23,EASNCFAIRHFENKFAVETLICRAARRRTGAADR,inactive
24,EASNCFAIRHFENKFAVETLICCLCVCKDYNCRM,7.77
25,EASNCFAIRHFENKFAVETLICFYVSINM,1.33

row,Sequence,amyloid nucleation score
1,EASNCFAIRHFENKFAVETLICWLPVAQLERVGS,inactive
2,EASNCFAIRHFENKFAVETLICTFQVSGWSII,1.61
3,EASNCFAIRHFENKFAVETLICLDEMDSRISGGT,inactive
4,EASNCFAIRHFENKFAVETLICHYRFSSGCNVMS,1.93
5,EASNCFAIRHFENKFAVETLICEGIYNSSFAHAW,inactive
6,EASNCFAIRHFENKFAVETLICLFCFHVVVSKW,inactive
7,EASNCFAIRHFENKFAVETLICRFALGNQEFGED,0.171
8,EASNCFAIRHFENKFAVETLICVFHACICGRTVF,5.99
9,EASNCFAIRHFENKFAVETLICMVGW,5.86
10,EASNCFAIRHFENKFAVETLICVRFMRCRMERYR,4.21
11,EASNCFAIRHFENKFAVETLICGKRVRKAAVGGA,inactive
12,EASNCFAIRHFENKFAVETLICRLLRN,inactive
13,EASNCFAIRHFENKFAVETLICVRPGNPSFQVVK,inactive
14,EASNCFAIRHFENKFAVETLICVDCWDLRRGDQT,inactive
15,EASNCFAIRHFENKFAVETLICVCTPNTGYPSCG,6.8
16,EASNCFAIRHFENKFAVETLICAYTIPVNYCALE,1.97
17,EASNCFAIRHFENKFAVETLICGAMLNCEINETR,8.02
18,EASNCFAIRHFENKFAVETLICMCSGRVRAPATE,5.35
19,EASNCFAIRHFENKFAVETLICVVITGRDQVGPV,4.84
20,EASNCFAIRHFENKFAVETLICEP,inactive
21,EASNCFAIRHFENKFAVETLICVLWTVGGSGQGR,inactive
22,EASNCFAIRHFENKFAVETLICFVGENRGVEQEE,3.95
23,EASNCFAIRHFENKFAVETLICVCLDGR,7.76
24,EASNCFAIRHFENKFAVETLICMS,inactive
25,EASNCFAIRHFENKFAVETLICQVAQSRV,inactive

# Same assay, conditions: random library (experiment): 2
row,Sequence,amyloid nucleation score
1,EASNCFAIRHFENKFAVETLICYVYHVWCAFRPY,inactive
2,EASNCFAIRHFENKFAVETLICLKILFINLHGLG,inactive
3,EASNCFAIRHFENKFAVETLICCVYDRWAGMCWF,1.61
4,EASNCFAIRHFENKFAVETLICLDD,inactive
5,EASNCFAIRHFENKFAVETLICCRAVLEFGMEAS,inactive
6,EASNCFAIRHFENKFAVETLICHLMGLFVDGWVV,inactive
7,EASNCFAIRHFENKFAVETLICCHFDNRLLLHCE,inactive
8,EASNCFAIRHFENKFAVETLICHRGIGELSLIGC,3.45
9,EASNCFAIRHFENKFAVETLICWVSRVSRCSNIL,inactive
10,EASNCFAIRHFENKFAVETLICMSRD,4.12
11,EASNCFAIRHFENKFAVETLICFSMVQDFKVLLR,inactive
12,EASNCFAIRHFENKFAVETLICMVVYVGFWNVGD,inactive
13,EASNCFAIRHFENKFAVETLICYLSSSY,inactive
14,EASNCFAIRHFENKFAVETLICLTSWERRSVVS,inactive
15,EASNCFAIRHFENKFAVETLICFYIVPSYFWYSC,inactive
16,EASNCFAIRHFENKFAVETLICPHLPGARPFGVQ,3.99
17,EASNCFAIRHFENKFAVETLICLHKFSMWRWGLR,-0.351
18,EASNCFAIRHFENKFAVETLICVRNW,inactive
19,EASNCFAIRHFENKFAVETLICVCDCRYCCTLLL,1.26
20,EASNCFAIRHFENKFAVETLICTFLY,2.45
21,EASNCFAIRHFENKFAVETLICCCLLQIYSHMSG,inactive

row,Sequence,amyloid nucleation score
1,EASNCFAIRHFENKFAVETLICAFFKNSASFLNL,-1.02
2,EASNCFAIRHFENKFAVETLICKDKGPMR,inactive
3,EASNCFAIRHFENKFAVETLICPKVLVFQPLRSV,5.4
4,EASNCFAIRHFENKFAVETLICDSCDFSSQLIVR,inactive
5,EASNCFAIRHFENKFAVETLICLCSVYISSMSFY,inactive
6,EASNCFAIRHFENKFAVETLICKNTSF,-0.0677
7,EASNCFAIRHFENKFAVETLICGDS,inactive
8,EASNCFAIRHFENKFAVETLICVVLYMRMYFPNN,4.3
9,EASNCFAIRHFENKFAVETLICRKWSSQDVFLDC,inactive
10,EASNCFAIRHFENKFAVETLICVKSDLSFIPWHE,inactive
11,EASNCFAIRHFENKFAVETLICLSPEFTPGKLCS,inactive
12,EASNCFAIRHFENKFAVETLICMLIRSFYHHRWV,0.528
13,EASNCFAIRHFENKFAVETLICVSLGTWTGVENV,6.9
14,EASNCFAIRHFENKFAVETLICYISIVSFLKHSW,-0.0953
15,EASNCFAIRHFENKFAVETLICIYQGML,2.1
16,EASNCFAIRHFENKFAVETLICVLGRVCPVFACI,inactive
17,EASNCFAIRHFENKFAVETLICCSLWYIEYTSGR,6.97
18,EASNCFAIRHFENKFAVETLICVTFNGFGLREKG,5.33
19,EASNCFAIRHFENKFAVETLICLLFHVLGNPSEV,inactive
20,EASNCFAIRHFENKFAVETLICVVFSSLVSYVWE,inactive
21,EASNCFAIRHFENKFAVETLICFPMHTGNEGAVF,5.16

# Same assay, conditions: random library (experiment): 3
row,Sequence,amyloid nucleation score
1,EASNCFAIRHFENKFAVETLICYRSWMRAGTVND,inactive
2,EASNCFAIRHFENKFAVETLICKWVQVDLGVWAR,inactive
3,EASNCFAIRHFENKFAVETLICVQVVEKTCPVWW,0.838
4,EASNCFAIRHFENKFAVETLICISLFRMNVRYVC,inactive
5,EASNCFAIRHFENKFAVETLICQMSRAVLQTTRS,inactive
6,EASNCFAIRHFENKFAVETLICMVPE,inactive
7,EASNCFAIRHFENKFAVETLICQNCFNVLRISAT,6.34
8,EASNCFAIRHFENKFAVETLICRYC,inactive
9,EASNCFAIRHFENKFAVETLICPLSRMSPGTYYR,inactive
10,EASNCFAIRHFENKFAVETLICGL,inactive
11,EASNCFAIRHFENKFAVETLICEGGTW,4.51
12,EASNCFAIRHFENKFAVETLICFCVRHYAVCVTM,inactive
13,EASNCFAIRHFENKFAVETLICTSWRRGWRFWRM,inactive
14,EASNCFAIRHFENKFAVETLICWDKYRWAHATLM,inactive
15,EASNCFAIRHFENKFAVETLICAASVARMVYVLR,inactive
16,EASNCFAIRHFENKFAVETLICPTVASVPWRECV,inactive
17,EASNCFAIRHFENKFAVETLICYRMVVN,6.43
18,EASNCFAIRHFENKFAVETLICTGAKSMEYKTRC,inactive
19,EASNCFAIRHFENKFAVETLICGGGSWDRHPRTS,inactive
20,EASNCFAIRHFENKFAVETLICEFEYIGM,inactive
21,EASNCFAIRHFENKFAVETLICMGPWGTVCWLVG,inactive
22,EASNCFAIRHFENKFAVETLICRCVCYLGCSPPV,inactive
23,EASNCFAIRHFENKFAVETLICREVNTSISRR,4.01
24,EASNCFAIRHFENKFAVETLICVVNKLKSSGCAY,inactive
25,EASNCFAIRHFENKFAVETLICYIPYRVAGLHRL,inactive
26,EASNCFAIRHFENKFAVETLICPVFSVVFDALGG,7.6
27,EASNCFAIRHFENKFAVETLICRATCCLATFWYG,-0.396
